Laboratory results published in the RNAGym collection of RNA variant scans (doi:10.7554/elife.90254).
Read counts are not given, so values of variants with three or more changes are uncertain.

B1: LINE1-mini (parent)
chain: GGCAGAGCUCAACACAGCGUGGCAAAGUGGCUGUGGCUAGACUGCC

Variants of: B1
Test: self-cleavage, relative activity (ratio to wild type); higher = more cleavage; in vitro, sequencing; the parent is a self-cleaving ribozyme

Variant | self-cleavage
GGCAGAGUUCCACACAACGUGGCAAAGUGGCUGUGGCUAGACUGCC [C8U A11C G17A] | 0.02
GGCAGAGGGCAACACAGCGUGGCAGAGUGGCUGUGGCUGGACUGCC [C8G U9G A25G A39G] | 0.01
GGCAGAGGUCAACACAGCGUGUCAAAGUUGCUGUGGCUAGACUGCC [C8G G22U G29U] | 0.12
GGCAGAGGUCAACACAGCGUGGCAAAGUGGCUGGGGCUGGACGGCC [C8G U34G A39G U43G] | 0.02
GGCAGAGGUCAACACAGCGUGACAAAGUGGCUGUCGCUAGACUUCC [C8G G22A G35C G44U] | 0.01
GGCAGAGGGCAACACAGCGUGGCGAAGUGGCUGUGGCUAGACUGCC [C8G U9G A24G] | 0.05
GGCAGAGUUCCACACAGCGUGGGUACGUGGUUGUGGCUAGAGUGCC [C8U A11C C23G A24U A26C C31U C42G] | 0
GGCAGAGGUCAACACAGCUUUGCAAAGUGGCUGUGGCUAGACUGCC [C8G G19U G21U] | 0.04
GGCAGAGGCAAACACAGUGUGGCAAAGUGGCUGUGGCUAGACUUUC [C8G U9C C10A C18U G44U C45U] | 0
GGCAGAGGUCAACACAGCGUGGCAAAGGGGCUGUGGCUAGACUGCA [C8G U28G C46A] | 0.07
GGCAGAGGACAACUCAGCGUUGCAAACUGGCUUCGGCUAGACUGCC [C8G U9A A14U G21U G27C G33U U34C] | 0.02
GGCAGAGGUCAACACAGCGUGGCAAAGUGGCUAUGGCUAGACCGCC [C8G G33A U43C] | 0.01
GGCAGAGGUCAACACAGCGUGGCAAAGUGGCUGUGGCGAUACUGCC [C8G U38G G40U] | 0.03
GGCAGAGGUCAACACAGCGUGGCAAAGCGGGUGUGGCUAGACUGCC [C8G U28C C31G] | 0
GGCAGAGGUCAACACAGCGUGGCAAAGUGGCGGUGGCUAGCCUGCC [C8G U32G A41C] | 0.13
GGCAGAGGACAACACAGAGUGGAAAAGUGGCUGUGGCUAGACUGCC [C8G U9A C18A C23A] | 0.09
GGCAGAGGUCAACACAGCGUGGCAAAGUGACUGUGGCUAGACUGCA [C8G G30A C46A] | 0.01
GGCAGAGGUCAACACAGCGUGGCAAAUUCGCUGUGGCUAGACUGCC [C8G G27U G29C] | 0.05
GGCAGAGGUCAACACAGCGUGGCAAAGUAGCUCCGGCUAGACUGCA [C8G G29A G33C U34C C46A] | 0.02

Variant | self-cleavage
GGCAGAGGUCAACACAGCGUGGCAAAGUGCCUGAGGCUAGACUGCC [C8G G30C U34A] | 0
GGCAGAGGUCAACACAGCGUGGCAAAGCGGCUGUGGCUUGACUGCC [C8G U28C A39U] | 0.03
GGCAGAGGUCAACACAGCCUAGCAAAGUGGCUGUGGCUAUACUGCC [C8G G19C G21A G40U] | 0.02
GGCAGAGGUCAACACAGCGUGCCAAAGUGGCUGUGGCUAGACUGGC [C8G G22C C45G] | 0.02
GGCAGAGGUCAACACAGCUUGGCAAAGUGGCUUUGGCUAGACUCCC [C8G G19U G33U G44C] | 0.04
GGCAGAGGUCAACACAGCUUGGCAAAGUGGGUGUGUCUAGACUACG [C8G G19U C31G G36U G44A C46G] | 0
GGCAGAGGUCAACACAGCGUAGCAUACUGGCUGUUGCUAGACUGUC [C8G G21A A25U G27C G35U C45U] | 0.01
GGCAGAGGUCAACACAGCCUGGCAAAGUGGCUGUGGCACGUCUGCC [C8G G19C U38A A39C A41U] | 0.02
GGCAGAGGUCAACACAGCGUUGGAAAGUGGCCGUUGCUAGACUGCC [C8G G21U C23G U32C G35U] | 0.01
GGCAGAGGUCAACACAGCGUCGCAAAGUGGCUGUGGCUAGGCUGCC [C8G G21C A41G] | 0.14
GGCAGAGUUCGACACAGCGUGGAAAAGUGGCUGGGGCUAGACUGCC [C8U A11G C23A U34G] | 0.01
GGCAGAGGUCAACACAGCGUGGCAAAGAGGCUGUGGCAAGACUGCC [C8G U28A U38A] | 0.05
GGCAGAGGUCAACACAGCCUGGCAAAGUGGCUGUGGCUAGACUGUC [C8G G19C C45U] | 0.01
GGCAGAGGAAAACACAGCGUGGCAAAGUGGCUGUGGCUAGACUGCC [C8G U9A C10A] | 0.04
GGCAGAGGUCAACACAGCGUGGCAAAGUUGCUGUUCCUAGACUGCC [C8G G29U G35U G36C] | 0.05
GGCAGAGGUCAACACAGCGUGGCAAAGGGGCCGUGGCUAGACUGAC [C8G U28G U32C C45A] | 0.01
GGCAGAGGUCAACACAGCGUGGCAAAGUGGCUGUGGCUACAAUGCC [C8G G40C C42A] | 0.15
GGCAGAGGUCAACACAGCGUGGCAAAGUUGCUGGGGUUAGACUGCC [C8G G29U U34G C37U] | 0.09
GGCAGAGGUCAACACAGCGUGGCAAAGUGCCUGUGGCUACACUGCC [C8G G30C G40C] | 0.39

Variant | self-cleavage
GGCAGAGGUCAACACAGCGUGGCAAAGUGACAGUGGCUAGACUGCC [C8G G30A U32A] | 0.07
GGCAGAGUUCGACACAACGUGGCAAAGUGGCUGUGGCUAGACUGCC [C8U A11G G17A] | 0
GGCAGAGGUCAACACAGCAUGGCAAAGUGGCUGUGGAUAGACUGCC [C8G G19A C37A] | 0.01
GGCAGAGGACAACACAGCGUGGCAAAGUGGCUGUGGGUCGUCUGCC [C8G U9A C37G A39C A41U] | 0.01
GGCAGAGGUCAACACAGCGUGGCAAAGUGGCUCUGGCUAGACUGCA [C8G G33C C46A] | 0.01
GGCAGAGUUCCAUACAGCGUGGCAAAGUGGCUGUGGCUAGGCUGCC [C8U A11C C13U A41G] | 0.01
GGCAGAGGUCAACACAGCGUGGCAAAGGGGCGGUGGCUAGACUGCC [C8G U28G U32G] | 0.03
GGCAGAGGUCAACACAGCGUGAAAAAGUGGCUGUGGCAAGACUGCC [C8G G22A C23A U38A] | 0.02
GGCAGAGUUCCACACAGCGUGGCGAAGUGGCUGAGGCUACACUGCC [C8U A11C A24G U34A G40C] | 0.01
GGCAGAGGUCAACACAGCGUGGCAAAUUGGCUGUCGCUAGCCUGCC [C8G G27U G35C A41C] | 0.01
GGCAGAGGUCAACACAGCAUGGCACAGUGGCUGUGGCUAGACUGCC [C8G G19A A25C] | 0.05
GGCAGAGGACAACAAAGCGUGGCAAUGUGGCUGUGUCUAGACUGCC [C8G U9A C15A A26U G36U] | 0.09
GGCAGAGGUCAACACAGCGUGGCAAAAAUGCUGUGUCUAUACUGCC [C8G G27A U28A G29U G36U G40U] | 0.01
GGCAGAGGUCAACACAGCGUAGUUAAGUGGCUGUGGCUAGACUGCC [C8G G21A C23U A24U] | 0.1
GGCAGAGUUCGACACACCGUGGCAAAUUGGCUGAGGCUAGACUGCC [C8U A11G G17C G27U U34A] | 0.01
GGCAGAGGUCAACACAGCGUGGCAAAGGGGCUGUGCCUAGACUGCC [C8G U28G G36C] | 0.02
GGCAGAGGUCAACACAGCGUGGCAAAGGGGCUGUGACUAGACUGCC [C8G U28G G36A] | 0.06
GGCAGAGGGCAACACAGCUUGGCAAUGUGGCUGUGGCUAGACUGCC [C8G U9G G19U A26U] | 0.01
